Hit rate of the full screen: of about 110,000 compounds, about 230 (0.21%) showed an effect of 50% or more. This is one part of the list.
What follows are molecules tested against DPAP1 (Plasmodium falciparum, UniProt Q8IIJ9) (assay: primary screen, percent inhibition; read by cleavage of a fluorogenic dipeptide substrate; higher = more effect of the substance).
Sequence of DPAP1 (Q8IIJ9 whole entry, looked up): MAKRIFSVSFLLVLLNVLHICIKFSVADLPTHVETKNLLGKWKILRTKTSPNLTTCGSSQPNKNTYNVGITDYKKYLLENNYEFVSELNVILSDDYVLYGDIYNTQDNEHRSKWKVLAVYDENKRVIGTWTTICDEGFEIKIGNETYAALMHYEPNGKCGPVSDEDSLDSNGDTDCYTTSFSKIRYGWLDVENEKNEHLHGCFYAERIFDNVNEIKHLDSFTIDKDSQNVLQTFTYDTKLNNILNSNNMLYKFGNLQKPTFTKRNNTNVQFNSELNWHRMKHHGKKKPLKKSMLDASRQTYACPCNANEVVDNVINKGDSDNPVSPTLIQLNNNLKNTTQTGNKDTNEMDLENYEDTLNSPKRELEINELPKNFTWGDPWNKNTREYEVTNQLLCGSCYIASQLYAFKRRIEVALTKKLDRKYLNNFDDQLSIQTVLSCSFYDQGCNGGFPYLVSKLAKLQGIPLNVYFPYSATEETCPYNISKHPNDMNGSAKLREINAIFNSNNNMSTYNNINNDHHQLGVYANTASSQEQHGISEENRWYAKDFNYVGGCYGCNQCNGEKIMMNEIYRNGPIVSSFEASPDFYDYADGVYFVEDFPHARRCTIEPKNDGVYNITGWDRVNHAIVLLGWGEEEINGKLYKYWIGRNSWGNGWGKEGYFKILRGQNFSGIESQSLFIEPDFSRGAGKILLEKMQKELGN
Design: species or system P. falciparum D10 trophozoite lysates; single well
In the case of CC1CCCN(S(=O)(=O)c2cccc3nonc23)C1 (stereo not shown), the “% Inhibition @ 10 uM” value is reported as -2.36%.
In the case of Cc1nc2c3ccccc3n3c(CCCC(=O)NCCc4ccc(S(N)(=O)=O)cc4)nnc3n2n1, the “% Inhibition @ 10 uM” value is reported as 0.44%.
For CC(=O)N1N=C(c2ccc(C)cc2)CC1c1cc2cc3c(cc2nc1Cl)OCO3 (stereo not shown), the “% Inhibition @ 10 uM” value was 3.87%.
With COCc1[nH]nc2c1C(c1ccco1)C(C#N)=C(N)O2 (stereo not shown) the “% Inhibition @ 10 uM” value was 3.05%.
For O=C(CN1C(=O)c2cccc3cccc1c23)NCc1cccnc1, the “% Inhibition @ 10 uM” value was -6.05%.
O=c1c2c(nc3n1CCCS3)-c1ccccc1CC21CCCCC1 was tested, and the “% Inhibition @ 10 uM” value was -5.62%.
Cc1nn(C(C)C(=O)NCc2ccco2)c2ccccc12 (stereo not shown) was tested, and the “% Inhibition @ 10 uM” value was 0.596%.
For CCc1ccc(NC(=O)c2cccc(C)c2)cc1, the “% Inhibition @ 10 uM” value was 2.22%.
Cc1ccccc1CN1C[C@@H]2C[C@H](C1)c1cccc(=O)n1C2 was tested, and the “% Inhibition @ 10 uM” value was 3.42%.
For FC(F)(F)C1(C(F)(F)F)N=C(c2ccncc2)OC(c2ccco2)=N1, the “% Inhibition @ 10 uM” value was -11.5%.
In the case of CC(=O)Nc1c(O)nc(SCc2ccc(Br)cc2)nc1O, the “% Inhibition @ 10 uM” value is reported as 22.4%.
With CCCCO/C(O)=C1\C(C)=NC2=C(C(=O)CCC2)C1c1ccccc1OCC (stereo not shown) the “% Inhibition @ 10 uM” value was 11.6%.
With COc1ccccc1CC(=O)Nc1cc(OC)c(NC(=O)c2ccccc2)cc1OC the “% Inhibition @ 10 uM” value was -3.41%.
In the case of O=c1[nH]c(/C=C/c2ccc(Cl)cc2Cl)c([N+](=O)[O-])c(=O)[nH]1, the “% Inhibition @ 10 uM” value is reported as 1%.
CCC(C)NC(=O)c1ccc(-c2nc(CS(=O)(=O)c3ccc(C)cc3)c(C)o2)cc1 (stereo not shown) was tested, and the “% Inhibition @ 10 uM” value was -1.3%.
With COc1ccc(C(=O)C2=C(O)C(=O)N(Cc3ccncc3)C2c2ccccc2F)cc1 (stereo not shown) the “% Inhibition @ 10 uM” value was 3.8%.
For Cc1cccn2c(=O)c3cc(C(=O)NCc4ccco4)c(=N)n(Cc4ccco4)c3nc12, the “% Inhibition @ 10 uM” value was 4.98%.
In the case of CC(C)c1ccccc1OCC(=O)Nc1ccc(S(=O)(=O)N2CCCC2)cc1, the “% Inhibition @ 10 uM” value is reported as -0.795%.
For CCOC(=O)c1ccc(-n2c(C)cc(/C=C3\SC(=O)NC3=O)c2C)cc1, the “% Inhibition @ 10 uM” value was -0.053%.
CCc1cc2c(cc(C(=O)OC)n2Cc2cccc(OC)c2)s1 was tested, and the “% Inhibition @ 10 uM” value was -6.09%.
O=C(NCCN1CCOCC1)c1cc2nc(-c3ccc(Br)cc3)cc(C(F)(F)F)n2n1 was tested, and the “% Inhibition @ 10 uM” value was -2.22%.
O=C(NCCc1ccccc1)c1ccccc1NS(=O)(=O)c1ccc(F)cc1 was tested, and the “% Inhibition @ 10 uM” value was -5.92%.
For COCCCNC(=O)c1ccc(CSc2nc3cccnc3n2Cc2cccc(F)c2)cc1, the “% Inhibition @ 10 uM” value was 4.19%.
Cc1cc(=O)oc2cc(OCc3ccccc3F)ccc12 was tested, and the “% Inhibition @ 10 uM” value was 7.75%.
With Cc1ccc2c(Sc3ccc(Cl)cc3)c(C(=O)NCCCN3CCCC3=O)[nH]c2c1 the “% Inhibition @ 10 uM” value was -6.32%.
C/C(O)=C(/C#N)c1nc2ccccc2c2ccccc12 was tested, and the “% Inhibition @ 10 uM” value was -1.85%.
Cc1ccc(NC(=O)COc2ccc(Cl)cc2Cl)cc1 was tested, and the “% Inhibition @ 10 uM” value was -5.51%.
With N#Cc1c(-c2ccc(Cl)cc2)cc(-c2ccccc2)nc1O the “% Inhibition @ 10 uM” value was -4.93%.
In the case of CCOC(=O)c1c(N)n(-c2ccc(Br)cc2)c2nc3cc([N+](=O)[O-])c([N+](=O)[O-])cc3nc12, the “% Inhibition @ 10 uM” value is reported as 3.31%.
In the case of CC(C)C(=O)Nc1nc(O)c2c(n1)NC(C)C(C)N2C(=O)c1ccc[n+](C)c1 (stereo not shown), the “% Inhibition @ 10 uM” value is reported as -4.68%.
In the case of COc1ccc(C(=O)CSc2nn3c(SCC(=O)c4ccc(OC)cc4)nnc3s2)cc1, the “% Inhibition @ 10 uM” value is reported as 8.96%.
O=C(O)CCC1CN(C(=O)c2ccccc2)c2ccccc21 (stereo not shown) was tested, and the “% Inhibition @ 10 uM” value was 4.11%.
In the case of CCOc1ccccc1N1CCN(Cc2ccc(OC)c(C)c2OC)CC1, the “% Inhibition @ 10 uM” value is reported as -1.32%.
With CCOC(=O)C1=C(CS(=O)(=O)c2ccc(F)c(Cl)c2)NC(=O)NC1c1cccc(OC)c1 (stereo not shown) the “% Inhibition @ 10 uM” value was -5.79%.
For N#CC1=C(N)Oc2c(c(O)nc3ccccc23)C1c1cccc(F)c1 (stereo not shown), the “% Inhibition @ 10 uM” value was 23.8%.
For CC(C)c1ccc(-n2nnc(-c3nc(-c4ccc(Cl)cc4)no3)c2N)cc1, the “% Inhibition @ 10 uM” value was 1.4%.
In the case of FC(F)(F)c1ccccc1CNc1ccc2c(c1)OCO2, the “% Inhibition @ 10 uM” value is reported as -3.6%.
With COc1ccc(-c2csc3ncn(CC(=O)Nc4ccc(C)cc4)c(=O)c23)cc1 the “% Inhibition @ 10 uM” value was 1.8%.
With CC(C)(C)CC(OC(=O)N1CCOCC1)C(=O)NC1CCCN(C(=O)OCc2ccccc2)CC1=O (stereo not shown) the “% Inhibition @ 10 uM” value was 1.35%.
In the case of COc1ccc(OC2CCN(S(=O)(=O)c3ccc(C(C)=O)cc3)CC2)cc1, the “% Inhibition @ 10 uM” value is reported as 2.29%.
In the case of CC(C)Sc1ncc(Cl)c(C(=O)Nc2nc3ccc(F)cc3s2)n1, the “% Inhibition @ 10 uM” value is reported as -0.946%.
In the case of O=C(CCN1C(=O)c2ccccc2Sc2ncccc21)NCc1ccc2c(c1)OCO2, the “% Inhibition @ 10 uM” value is reported as -1.81%.
With COCCCn1c(SCc2ccccc2C#N)nc2c(sc3ccccc32)c1=O the “% Inhibition @ 10 uM” value was 11.4%.
With O=C(CSc1nc2ccccc2o1)Nc1cccc2ccccc12 the “% Inhibition @ 10 uM” value was -3.84%.
For N#CC(Nc1ccccc1)c1ccc(Br)cc1 (stereo not shown), the “% Inhibition @ 10 uM” value was 2.15%.
In the case of CS(=O)(=O)CCC(C(=O)NCc1ccc(CN2CCOCC2)o1)N1Cc2ccccc2C1=O (stereo not shown), the “% Inhibition @ 10 uM” value is reported as 4.36%.
N#Cc1cc2c(nc1SCCN1C(=O)c3ccccc3C1=O)CCC2 was tested, and the “% Inhibition @ 10 uM” value was 2.68%.
For COc1cc(OC)cc(C(=O)N2N=C(C)CC2(O)C(F)F)c1 (stereo not shown), the “% Inhibition @ 10 uM” value was -4.82%.
For O=[N+]([O-])c1ccc2nccc(O)c2c1, the “% Inhibition @ 10 uM” value was 2.23%.

— publication PMC6919601, “Identification of Plasmodium dipeptidyl aminopeptidase allosteric inhibitors by high throughput screening” (PLoS ONE, 2019)
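Note: 30 min substrate incubation versus DMSO and 10 µM JCP410 controls.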
